PubChem BioAssay AID1460 (National Center for Advancing Translational Sciences (NCATS), 2008)
The whole screen tested about 270,000 compounds, of which about 5,800 (2.1%) were called active. Inconclusive means that the source gave no clear call. Such entries were picked first, then a sample of the others. Calls follow the shape of the dose curve; as a rule, active = well fitted inhibition curve with a large enough effect; inconclusive = small, poorly fitted or top-dose-only effect; inactive = flat fitted curve, though single readings scatter. Where the call is inconclusive, the potency comes from a doubtful curve fit.

target: Microtubule-associated protein tau (Homo sapiens) (UniProt P10636); test: qHTS for Inhibitors of Tau Fibril Formation, Thioflavin T Binding; details: recombinant tau K18 P301L (four-repeat tau fragment), heparin-induced fibrillization, ThT fluorescence; series mostly up to 57.4 µM; also: nearly all actives have a fitted effect of over 55% in size
Outline: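 K18 P301L tau (15 uM + 0.24 uM Alexa 594-tagged), heparin 20 uM, NaOAc pH 7, 6 h 37 C; ThT 30 uM, 1 h RT, ex 450/em 510 nm.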
% is scaled to controls: 0 for no effect and ±100 for the full control effect; potency is read from the fitted curve at half-maximal effect; tags tell the direction and shape of the fitted curve.

Chain of UniProt P10636 (P10636 whole entry, looked up, the tested form may be a part): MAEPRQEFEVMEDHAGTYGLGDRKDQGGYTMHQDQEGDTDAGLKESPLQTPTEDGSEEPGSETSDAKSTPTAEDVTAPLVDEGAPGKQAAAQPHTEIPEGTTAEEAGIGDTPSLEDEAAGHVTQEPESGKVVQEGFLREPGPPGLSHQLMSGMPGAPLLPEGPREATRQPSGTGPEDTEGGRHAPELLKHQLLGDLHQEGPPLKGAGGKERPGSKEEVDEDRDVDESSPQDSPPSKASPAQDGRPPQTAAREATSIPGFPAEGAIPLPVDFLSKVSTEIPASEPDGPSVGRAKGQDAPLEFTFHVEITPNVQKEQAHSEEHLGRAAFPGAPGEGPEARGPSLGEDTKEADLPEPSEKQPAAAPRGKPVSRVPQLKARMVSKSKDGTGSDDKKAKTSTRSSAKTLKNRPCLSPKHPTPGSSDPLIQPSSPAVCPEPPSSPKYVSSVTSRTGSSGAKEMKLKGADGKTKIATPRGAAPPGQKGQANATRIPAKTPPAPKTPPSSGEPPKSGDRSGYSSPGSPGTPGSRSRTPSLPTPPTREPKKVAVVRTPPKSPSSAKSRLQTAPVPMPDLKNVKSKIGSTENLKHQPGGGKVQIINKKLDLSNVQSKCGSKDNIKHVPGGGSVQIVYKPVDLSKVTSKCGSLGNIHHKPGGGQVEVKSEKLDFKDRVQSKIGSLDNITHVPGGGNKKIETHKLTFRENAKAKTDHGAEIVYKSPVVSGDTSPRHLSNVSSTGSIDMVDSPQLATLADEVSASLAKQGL

SMILES | Potency | activity, negative = inhibition
O=C(Oc1ccc(NC(=O)c2cc3c(cc2Br)OCO3)cc1)c1ccccc1 | inconclusive: 5.62 µM [inhibitor, partial curve] | 
O=C(CSc1ncnc2nc[nH]c12)c1ccccc1 | inactive | 
COC(=O)c1cc(NC(=O)Nc2cccc(Cl)c2)ccc1Cl | inconclusive: 28.2 µM [activator, partial curve] | 
CCC(CC)NC(=O)COC(=O)c1ccc(OCc2ccc(C(C)=O)cc2OC)c(OC)c1 | inconclusive: 39.8 µM [inhibitor, single point] | 
Cc1ccnc(NC(=S)NC(=O)/C=C/c2ccco2)c1 | inconclusive: 22.4 µM [inhibitor, partial curve] | 
Cc1oc(-c2ccccc2)nc1C(=O)OCC(=O)NC(=O)NCC(C)C | inconclusive: 0.708 µM [inhibitor, full curve, poor fit] | 
C=CCn1c(=O)c2c(nc(Br)n2Cc2ccccc2Cl)n(C)c1=O | inactive | 
COC(=O)N/N=C/c1cccc(OCCSc2ccc(Cl)cc2)c1 | inconclusive: 28.2 µM [inhibitor, single point] | 
CC(C)/C=N/Nc1nc2c(c(=O)n(C)c(=O)n2C)n1C | active: 28.2 µM | 
Cc1cc(C)c(N)c(C(=O)O)c1 | inactive | 
S=C(Nc1ccccc1Cl)NC1CC2CCCC(C1)N2C1CC1 (stereo not drawn) | inactive | 
O=C(CSc1ccccc1)Nc1ccc(N2CCOCC2)cc1 | inconclusive: 15.8 µM [inhibitor, partial curve] | 
CCc1c2c(nc3ccc(OC)cc13)OC(C)C2 (stereo not drawn) | inactive | 
N#CC(C(=O)Nc1ccc(Cl)cc1)=C1Nc2ccccc2N1 | inconclusive: 2.24 µM [inhibitor, full curve, poor fit] | 
CCc1ccc(C(=O)/C=C/Nc2ccc(S(=O)(=O)Nc3cnc4ccccc4n3)cc2)cc1 | inconclusive: 0.501 µM [inhibitor, full curve, poor fit] | 
O=C1CNC(=S)N1CCOc1ccccc1 | inactive | 
CC1(C)C(=O)C2C[C@]3(O)C4=CC(=O)OC(c5ccoc5)[C@]4(C)CCC3[C@](C)(C2=O)C1CC(=O)O (stereo partly drawn) | inactive | 
COCCNC(=O)Cc1ccc(Br)cc1 | inactive | 
CC(C)CNS(=O)(=O)c1ccc(OCC(=O)Nc2ccc(F)cc2F)cc1 | inactive | 
O=C1NC(=O)C(c2ccccc2[N+](=O)[O-])=C1Nc1ccc(O)c(Cl)c1 | active: 7.94 µM | 
O=C(Nc1nnc(S(=O)(=O)N2CCCCC2)s1)c1ccc(Cl)cc1 | active: 2 µM | 
O=C(Nc1ccc2c(c1)nc1n2CCOC1)c1ccccc1 | inconclusive: 2.24 µM [inhibitor, partial curve] | 
CCOC(=O)N1CCN(C(=O)Nc2ccc(NC(=O)N3CCN(C(=O)OCC)CC3)cc2)CC1 | inconclusive: 8.91 µM [inhibitor, partial curve] | 

SMILES | Potency | activity, negative = inhibition
C=CCc1ccc(OCC(O)CN2CCC(Cc3ccccc3)CC2)c(OC)c1 (stereo not drawn) | inconclusive: 7.94 µM [inhibitor, partial curve, poor fit] | 
CC(=O)c1ccc(N2CCN(C(=O)/C=C/c3ccc(S(=O)(=O)N4CCOCC4)cc3)CC2)cc1 | inconclusive: 39.8 µM [inhibitor, single point] | 
CC1=C/C(=N\OC(=O)/C=C/c2ccccc2)C(C)=CC1=O | inconclusive: 5.01 µM [inhibitor, single point] | 
CCCCCCCCCCCCCCCC(=O)NCC(COP(=O)([O-])OCC[N+](C)(C)C)OCC (stereo not drawn) | inconclusive: 28.2 µM [inhibitor, partial curve] | 
Cc1c(C(=O)N2CCc3ccccc32)oc2ccccc12 | inconclusive: 20 µM [inhibitor, single point] | 
CCN(CC)c1ccc2cc(-c3nc4ccccc4n3C)c(=O)oc2c1 | inconclusive: 3.16 µM [activator, full curve] | 
O=C(N/N=C/c1ccncc1)c1ccc(COc2cccc3cccnc23)cc1 | inconclusive: 0.355 µM [inhibitor, full curve, poor fit] | 
COc1ccccc1NS(=O)(=O)c1cc(NC(=O)c2ccc3ccccc3n2)ccc1Cl | inactive | 
Cc1c(C(=O)Nc2ccc(Cl)cc2)c2ccccn2c1C(=O)c1ccc([N+](=O)[O-])cc1 | inconclusive: 3.16 µM [inhibitor, full curve] | 
CC(=O)/C(C#N)=C1\NC(=O)C(Cc2ccccc2Cl)S1 (stereo not drawn) | inconclusive: 44.7 µM [inhibitor, single point] | 
CC(C)OCCCN1C=C2C(=O)C(C)(OC(=O)CCc3ccccc3)C(=O)C=C2C=C1c1ccc(C#N)cc1 (stereo not drawn) | inconclusive: 39.8 µM [inhibitor, single point] | inactive: -11.3% [at 11.5 µM]
Cc1cccc(C)c1NC(=O)C1CCCN(S(=O)(=O)c2c(C)noc2/C=C/N(C)C)C1 (stereo not drawn) | inconclusive: 35.5 µM [inhibitor, single point] | 
O=C(CSc1nnc(CNC(=O)c2c(F)cccc2Cl)o1)Nc1ccc2c(c1)OCCO2 | inconclusive: 22.4 µM [inhibitor, partial curve] | 
COc1ccc(NC(=O)c2sc(SCc3ccccc3)nc2N)cc1 | inconclusive: 12.6 µM [inhibitor, partial curve] | 
C#CCOc1ccc(C2C(C(=O)OC)=C(C)NC3=C2C(=O)c2ccccc23)cc1OCC (stereo not drawn) | inconclusive: 12.6 µM [inhibitor, partial curve] | 
Cc1cc([N+](=O)[O-])nn1CC(=O)NNC(=S)Nc1ccc([N+](=O)[O-])cc1 | inconclusive: 17.8 µM [inhibitor, partial curve] | 
CCc1ccc(NC(=O)C(Cc2ccccc2)NS(=O)(=O)c2ccc3c(c2)CCN3C(C)=O)cc1 (stereo not drawn) | inactive | 
COc1ccc(S(=O)(=O)N2CCN(c3ccccn3)CC2)cc1[N+](=O)[O-] | inactive | 
CC(C)c1nnc(NC(=O)c2sc3ccccc3c2Cl)s1 | inconclusive: 15.8 µM [inhibitor, partial curve, poor fit] | 
O=C(NCCc1nc2ccccc2n1CCOc1ccc(Cl)cc1)C1CCCCC1 | inconclusive: 11.2 µM [inhibitor, partial curve, poor fit] | 
COc1ccccc1NC(=O)CN1CCN(CC(=O)Nc2ccc(OCc3ccccc3)cc2)CC1 | inconclusive: 17.8 µM [inhibitor, partial curve] | 
CCOC(=O)C(=O)C1=C(N2CCOCC2)/C(=C\c2cccc([N+](=O)[O-])c2)CC1 | inactive | 
Cc1cccn2c(=O)c(/C=C(\C#N)C(=O)NCc3ccco3)c(N3CCCC(C)C3)nc12 (stereo not drawn) | inconclusive: 20 µM [inhibitor, partial curve] | 

SMILES | Potency | activity, negative = inhibition
COC(=O)c1ccc(NC(=O)CSc2ccc(-c3cccs3)nn2)cc1 | inconclusive: 0.199 µM [inhibitor, full curve] | 
COc1ccc(OC)c(NC(=O)c2cc(S(=O)(=O)NCc3ccco3)ccc2F)c1 | inconclusive: 15.8 µM [inhibitor, partial curve] | 
CN(C)c1ccc(NC(=O)c2sc(SCC(=O)Nc3ccc(Br)cc3)nc2N)cc1 | inconclusive: 0.794 µM [inhibitor, full curve] | 
CC(=O)Nc1sc(N/N=C/c2ccc(O)cc2)nc1-c1ccc(C)cc1 | inconclusive: 28.2 µM [inhibitor, partial curve] | 
CCOC(=O)c1cc(-c2ccc(C)cc2)n(CCC(=O)NCc2ccccc2)c1C | inactive | 
Cc1ccc(NC(=O)c2sc3nc(CCl)[nH]c(=O)c3c2C)c(C)c1 | inconclusive: 28.2 µM [inhibitor, single point] | 
O=c1oc2cc(OCc3ccc(F)cc3F)ccc2cc1-c1ccc2ccccc2n1 | inactive | 
Oc1ccc(-c2csc(-c3ccccc3)n2)cc1O | active: 10 µM | 
CC(C)N1CSC(=S)N(Cc2ccccc2)C1 | inactive | 
COc1ccc(N2CCN(C(CNC(=O)c3ccc(C)cc3)c3ccc4c(c3)OCO4)CC2)cc1 (stereo not drawn) | inconclusive: 8.91 µM [inhibitor, full curve] | 
COc1cc(-c2nc3ccccn3c2/N=C/c2cc(OC)c(O)cc2Cl)ccc1O | active: 14.1 µM | 
C/C(=N\Nc1ncc(Cl)cc1Cl)c1ccc(OC(F)F)cc1 | inconclusive: 15.8 µM [inhibitor, partial curve] | 
CCOc1ccc(/C=C/c2nc(C#N)c(N(C)C)o2)cc1 | inconclusive: 2.51 µM [inhibitor, full curve] | 
Cc1csc2nc(COc3ccc(NC(=O)COc4ccc(F)cc4)cc3)cc(=O)n12 | inconclusive: 0.224 µM [inhibitor, full curve] | 
CN1Cc2sc(N)c(C#N)c2CC1(C)C | inconclusive: 12.6 µM [inhibitor, partial curve] | 
c1ccc(-c2nnc3sc(-c4csc5c4CCCC5)nn23)cc1 | inconclusive: 22.4 µM [inhibitor, single point] | 
O=C(c1ccc(-n2cccn2)cc1)N1CCc2c([nH]c3ccccc23)C1c1ccccn1 (stereo not drawn) | inconclusive: 20 µM [inhibitor, partial curve] | 
CC(C)NC(=O)CC(=O)N/N=C/c1cccs1 | inconclusive: 2.82 µM [inhibitor, partial curve] | 
COc1ccccc1-c1cn[nH]c(=S)n1 | inconclusive: 44.7 µM [inhibitor, partial curve] | 
CCc1ccc2oc(-c3cc(N)ccc3Cl)nc2c1 | inconclusive: 22.4 µM [inhibitor, partial curve] | 
Cc1ccnc(SCc2cc(=O)c(OC(=O)c3cc([N+](=O)[O-])ccc3Cl)co2)n1 | inconclusive: 39.8 µM [inhibitor, single point] | 
